# Measured values published in PubChem BioAssay AID938 (National Center for Advancing Translational Sciences (NCATS), 2007).
# Values joined by “and” are separate entries in the source; they are usually repeats but may differ in a detail not shown here. Identical values can stand only once. In all, about 73,000 compounds went through this assay and about 1,800 (2.5%) were called active. This list was built around the results that the source calls inconclusive (neither active nor inactive); the mix of calls is not that of the screen. Calls come from the whole dose curve; as a rule, active = well fitted activation curve with a large enough effect; inconclusive = small, poorly fitted or top-dose-only effect; inactive = no such curve, though single readings can be large or run the other way. Potencies beside an inconclusive call are fits to weak or partial responses and may not hold up. Some structures have more than one record in an assay (separate samples or runs), and their calls can disagree.
# Experiment: qHTS Assay for Agonists of the Thyroid Stimulating Hormone Receptor: Activators of Intracellular cAMP Concentrations in Parental HEK 293; note: nearly all actives have a fitted effect of over 55% in size; for activation: % of control where 0% means no effect
# Details: parental HEK293 CNG cAMP sensor, membrane potential fluorescence; activation: at 57.1 µM (top of the series)
# Summary of the method: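 Parental HEK 293 cells stably expressing a modified CNG channel (no TSHR) report cAMP rise as membrane depolarization. Membrane potential dye with 100 uM RO 20-1724 was loaded for 60 min at room temperature, then compound added for 30 min; fluorescence read at 590 nm.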
# Potency is the fitted concentration of half-maximal effect; tags give direction and shape of the fitted curve.
Compound,Potency,activation
CC[C@H](CO)NC(=O)[C@H]1C=C2c3cccc4[nH]cc(c34)C[C@H]2N(C)C1,inactive,–
O=C(CSc1nnc(-c2ccccc2)o1)n1c2c(c3ccccc31)CCCC2,"inconclusive: 3.98 µM [activator, full curve, poor fit]",–
CCC(=Nc1ccc2c(c1)CCC2)c1c(O)n(C)c(=O)n(C)c1=O,"inconclusive: 20 µM [activator, partial curve]",–
O=C(OCCCCN1C(=O)c2ccccc2C1=O)c1ccc(Br)o1,"inconclusive: 39.8 µM [activator, single point]",–
Ic1ccccc1CN[C@@H]1C2CCN(CC2)[C@H]1C(c1ccccc1)c1ccccc1,"inconclusive: 39.8 µM [activator, single point]",–
CCC(=Nc1ccc2c(c1)CCC2)c1c(O)n(C2CCCCC2)c(=O)[nH]c1=O,inactive,–
CCCCCCCCCCCCCC(=O)O[C@H]1[C@@H](C)[C@@]2(O)[C@@H](C=C(CO)C[C@]3(O)C(=O)C(C)=C[C@@H]23)C2C(C)(C)[C@]21OC(C)=O (stereo partly specified),"inconclusive: 1.26 µM [activator, full curve, poor fit]",–
Oc1c(Cl)c(Cl)cc(Cl)c1Cl,active: 39.8 µM,–
CN1[C@@H]2CC[C@H]1CC(OC(=O)c1cc(Cl)cc(Cl)c1)C2 (stereo partly specified),"inconclusive: 5.01 µM [activator, single point] and inconclusive: 31.6 µM [activator, partial curve]",–
CCOC(=O)c1c(C)n(COCCO)c2ccc(O)cc12,inactive,–
CN1CC[C@]2(C)c3cc(O)ccc3N(C)[C@@H]12,inactive,–
Nc1nc(N)c(Cn2ccnc2)c(=O)[nH]1,"inconclusive: 7.94 µM [activator, single point]",–
Cc1cc(OC(=O)CCNC(=O)OC(C)(C)C)c2c3c(c(=O)oc2c1)CCC3,"inconclusive: 7.94 µM [activator, partial curve]",–
CCNC(=O)C1OC(n2cnc3c(N)ncnc32)C(O)C1O (stereo unspecified),active: 0.631 µM,–
COP(=O)(OC)O/C(=C\Cl)c1cc(Cl)c(Cl)cc1Cl,"inconclusive: 39.8 µM [activator, single point]",–
CCCCCn1c(=O)c(C(=O)NCc2ccncc2)c(O)c2ccccc21,"inconclusive: 15.8 µM [activator, partial curve]",–
Cc1cc(NC(=O)COC(=O)c2c(C)nn(Cc3ccccc3Cl)c2Cl)no1,"inconclusive: 20 µM [activator, partial curve, poor fit]",–
CC(C)(C)NCc1cccn1-c1sc2c(c1C#N)CCCC2,active: 25.1 µM,–
C/C(CCc1c[nH]c2ccccc12)=N\O,inactive,–
COc1ccc2c(c1OC)C(=O)O[C@H]2[C@H]1c2cc3c(cc2CCN1C)OCO3,active: 12.6 µM,–
Cc1nn(Cc2ccccc2Cl)c(Cl)c1C(=O)OCC(=O)NCc1ccco1,active: 25.1 µM,–
c1ccc(CN2CC[C@@]3(CCCNC3)C2)cc1,"inconclusive: 10 µM [activator, partial curve]",–
CCCCOC(=O)c1ccccc1C(=O)OCCCC,"inconclusive: 12.6 µM [activator, partial curve]",–
C(=NC12CN3CN(CN(C3)C1)C2)c1cccnc1,"inconclusive: 1 µM [activator, partial curve]",–

Compound,Potency,activation
O=C(c1cc2cc3ccc(Cl)cc3nc2o1)N1CCC2(CC1)OCCO2,inactive,–
CCOC(=O)C1=C(c2ccccc2)OC(N)=C(C#N)C1C(C)C (stereo unspecified),"inconclusive: 25.1 µM [activator, single point]",–
O=C(Oc1nsnc1N1CCOCC1)N(c1ccccc1)c1ccccc1,"inconclusive: 39.8 µM [activator, single point]",–
CCc1ccc(OCCCN=C(C)c2c(O)n(C)c(=O)n(C)c2=O)cc1,"inconclusive: 1.58 µM [activator, full curve]",–
O=C(O)c1nn(Cc2ccc(Cl)cc2Cl)c2ccccc12,active: 39.8 µM,–
COc1ccc(C2NCc3ccc4c(c3-n3cccc32)OCO4)cc1O (stereo unspecified),"inconclusive: 25.1 µM [activator, single point]",–
COCCNC(=O)c1c(NC(=O)c2ccco2)n(Cc2ccccc2)c2nc3ccccc3nc12,inactive,–
CC(=O)c1cccc(OCC(O)CN2CC=C(c3ccccc3)CC2)c1 (stereo unspecified),"inconclusive: 12.6 µM [activator, partial curve]",–
ClC1=C(Cl)C2(Cl)C3C4CC(C5OC45)C3C1(Cl)C2(Cl)Cl (stereo unspecified),inactive,–
Cc1cc(N=Nc2ccccc2C)ccc1N,inactive,–
C=CCN1CC[C@@]23c4c5ccc(O)c4O[C@H]2/C(=N\N=C2/CC[C@@]4(O)[C@H]6Cc7ccc(O)c8c7[C@@]4(CCN6CC=C)[C@@H]2O8)CC[C@]3(O)[C@@H]1C5,"inconclusive: 31.6 µM [activator, single point]",–
CCCCCCC(C)(C)c1ccc([C@@H]2C[C@H](O)CC[C@H]2CCCO)c(O)c1,"inconclusive: 6.31 µM [activator, single point]",–
NC(=O)C1(N2CCCCC2)CCN(Cc2ccccc2)CC1,"inconclusive: 1.58 µM [activator, single point]",–
CCOc1ccc2[nH]c(=O)c(CN(CCO)C3(c4nnnn4C4CCCCC4)CCCCC3)cc2c1,active: 25.1 µM,–
COC(=O)C(C)Oc1cc(C)cc2oc(=O)c3c(c12)CCC3 (stereo unspecified),"inconclusive: 31.6 µM [activator, single point]",–
Cc1noc(C)c1C(=O)N1CCC2(CCCN(CC(C)C)C2)CC1,active: 15.8 µM,–
O=P1(NC2CCCC2)COc2ccccc2OC1,"inconclusive: 1.26 µM [activator, full curve]",–
O=C1OC(=O)c2c(Cl)c(Cl)c(Cl)c(Cl)c21,active: 39.8 µM,–
Cc1ccc2c(c1)C1CN(C)CCC1N2C(=O)Nc1ccc(Cl)cc1 (stereo unspecified),"inconclusive: 0.631 µM [activator, single point]",–
CCCCCCn1c(=O)c(C(=O)Nc2ccncc2)c(O)c2ccccc21,inactive,–
COc1cc2cc(c1Cl)N(C)C(=O)C[C@H](OC(=O)C(C)C)[C@]1(C)O[C@@H]1[C@@H](C)[C@H]1C[C@](O)(NC(=O)O1)[C@@H](OC)/C=C\C=C(\C)C2,active: 1 µM,–
O=C(O)/C=C(\CC(=O)O)C(=O)O,"inconclusive: 5.01 µM [activator, single point]",–
O=C(O)[C@@H]1[C@H](C(=O)O)[C@]2(Cl)C(Cl)=C(Cl)[C@@]1(Cl)C2(Cl)Cl,–,inactive: 2.6% [at 11.4 µM]
N#CSCSC#N,inactive,–

Compound,Potency,activation
CCCCC1(C2CCCC2)Cc2cc(OCCCC(=O)O)c(Cl)c(Cl)c2C1=O (stereo unspecified),"inconclusive: 25.1 µM [activator, single point]",–
CC(C)(C)c1cc(C#N)cc(Br)c1OP(=O)(Oc1c(Br)cc(C#N)cc1C(C)(C)C)c1ccccc1,–,inactive: -0.379% [at 11.4 µM]
O=C(c1cccc(N2CCCC2=O)c1)N1CCC2(CC1)OCCO2,"inconclusive: 3.16 µM [activator, single point]",–
O=C(Nc1cccnc1)c1c(O)c2c(n(Cc3ccccc3)c1=O)CCCC2,active: 12.6 µM,–
Cc1cc(N2C(=O)C3CCCN3C2c2ccc(Cl)c(Cl)c2)no1 (stereo unspecified),"inconclusive: 1 µM [activator, single point]",–
C[C@@H]1O[C@H](C[N+](C)(C)C)CS1,"inconclusive: 31.6 µM [activator, single point]",–
O=C(CCl)c1ccccc1,–,inconclusive: 33.7% [activator]
CCCCn1c(N)c(C(=O)NCCN2CCOCC2)c2nc3ccccc3nc21,inactive,–
CCNC(=O)[C@@H]1O[C@@H](n2cnc3c(N)ncnc32)[C@@H](O)[C@H]1O,active: 0.158 µM,–
CS(=O)c1ccc(-c2nc(-c3ccc(F)cc3)c(-c3ccncc3)[nH]2)cc1 (stereo unspecified),inactive,–
N#CC(C#N)=Cc1cc(O)c(O)c(O)c1,"inconclusive: 39.8 µM [activator, single point]",–
CCC(=O)Nc1c(C)nn(C(=O)CC)c1C,active: 31.6 µM,–
O=C(CN1CCN(Cc2cccc(Cl)c2)C1=O)N1CCC2(CC1)OCCO2,"inconclusive: 3.98 µM [activator, single point]",–
CCCN(C/C=C\I)[C@@H]1CCc2ccc(O)cc2C1,"inconclusive: 10 µM [activator, full curve, poor fit]",–
N[C@H](Cn1ccc(=O)[nH]c1=O)C(=O)O,"inconclusive: 3.98 µM [activator, single point]",–
CN(C)c1ccc2c(c1)N=C(c1ccco1)OP2(=S)N1CCOCC1 (stereo unspecified),inactive,–
CN1CCN(C(=O)Cc2nc3ccccc3[nH]2)CC1,"inconclusive: 0.0631 µM [activator, full curve, poor fit]",–
Cc1nc(-c2ccc(-c3ccc(C(=O)N4CCc5cc6c(cc54)C4(CCN(C)CC4)CO6)cc3)c(C)c2)no1,"inconclusive: 7.94 µM [activator, single point]",–
NNc1c(C(N)=O)c2c(N)ncnc2n1[C@@H]1O[C@H](CO)[C@@H](O)[C@@H]1O,–,inactive: -6.05% [at 11.4 µM]
CCOC(=O)c1c(C)n(CCN2CCN(C)CC2)c2ccc(OC)cc12,inactive,–
CC(=O)OC1=CC2=CC[C@H]3[C@H]4CCC(=O)[C@@]4(C)CC(=O)[C@]3(S)[C@]2(C)CC1,–,inactive: -5.24% [at 11.4 µM]
CCOC(=O)c1c(N)n(Cc2ccco2)c2nc3ccccc3nc12,"inconclusive: 39.8 µM [activator, single point]",–
c1ccc(N2CCC3(CCNCC3)CC2)nc1,"inconclusive: 15.8 µM [activator, partial curve]",–
